# Assay results published in the supplement of paper PMC8728848.
# Some of the results follow.
# B1: UDA (Urtica dioica), P11218 (protein)
# chain: MMMRFLSAVVIMSSAMAVGLVSAQRCGSQGGGGTCPALWCCSIWGWCGDSEPYCGRTCENKCWSGERSDHRCGAAVGNPPCGQDRCCSVHGWCGGGNDYCSGSKCQYRCSSSVRGPRVALSGNSTANSIGNVVVTEPLFDQMFSHRKDCPSQGFYSYHSFLVAAESFPAFGTIGDVATRKREVAAFLAHISQATSGERSDVENPHAWGLCHINTTTVTENDFCTSSDWPCAAGKKYSPRGPIQLTHNFNYGLAGQAIGEDLIQNPDLVEKDPIISFKTALWFWMSQHDNKPSCHDIVLNANSAANRIPNKGVIGNIISRAFGHDDFAVRSSSIGFYKRYCDMLGVSYGHDLKYWFDNTPSSEFQRIQMRVAA
# Columns and labels:
# Experiment in all cases: glycan array binding signal (z-score within array); higher = stronger binding
# Details in all cases: glycan notation: IUPAC condensed, linker removed
# [1] = target: Neu5Ac(a2-6)GlcNAc(b1-4)GlcNAc(b1-4)GlcNAc
# In short: (§1)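 Columns mapping to the same glycan were averaged after glycan names were converted to IUPAC-condensed notation. The data come from 3228 arrays in the Consortium for Functional Glycomics database, limited to those with an available protein sequence. Binding is reported as a within-array Z-score averaged across arrays of one protein sequence and across linkers.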
# Neu5Ac(a2-8)Neu5Ac = target: Neu5Ac(a2-8)Neu5Ac
# In short: as §1
# [2] = target: Neu5Ac(a2-8)Neu5Ac(a2-3)Gal(b1-3)GalNAc(b1-4)[Neu5Ac(a2-3)]Gal(b1-4)Glc
# In short: as §1
# [3] = target: Neu5Ac(a2-8)Neu5Ac(a2-3)Gal(b1-3)GalNAc(b1-4)[Neu5Ac(a2-8)Neu5Ac(a2-3)]Gal(b1-4)Glc
# In short: as §1
# [4] = target: Neu5Ac(a2-8)Neu5Ac(a2-3)Gal(b1-4)Glc
# In short: as §1
# [5] = target: Neu5Ac(a2-8)Neu5Ac(a2-3)Gal(b1-4)GlcNAc
# In short: as §1
# [6] = target: Neu5Ac(a2-8)Neu5Ac(a2-3)[Gal(b1-3)GalNAc(b1-4)]Gal(b1-4)Glc
# In short: as §1
# [7] = target: Neu5Ac(a2-8)Neu5Ac(a2-3)[GalNAc(b1-4)]Gal(b1-4)Glc
# In short: as §1
# [8] = target: Neu5Ac(a2-8)Neu5Ac(a2-8)Neu5Ac
# In short: as §1
# [9] = target: Neu5Ac(a2-8)Neu5Ac(a2-8)Neu5Ac(a2-3)Gal(b1-4)Glc
# In short: as §1
# [10] = target: Neu5Ac(a2-8)Neu5Ac(a2-8)Neu5Ac(a2-3)[Gal(b1-3)GalNAc(b1-4)]Gal(b1-4)Glc
# In short: as §1
# [11] = target: Neu5Ac(a2-8)Neu5Ac(a2-8)Neu5Ac(a2-3)[GalNAc(b1-4)]Gal(b1-4)Glc
# In short: as §1
# [12] = target: Neu5Ac(a2-8)Neu5Ac(a2-8)Neu5Ac(a2-8)Neu5Ac(a2-3)[GalNAc(b1-4)]Gal(b1-4)Glc
# In short: as §1
# [13] = target: Neu5Ac(a2-8)Neu5Gc(a2-3)Gal(b1-4)GlcNAc
# In short: as §1
# Neu5Ac(b1-6)GalNAc = target: Neu5Ac(b1-6)GalNAc
# In short: as §1
# [14] = target: Neu5Ac(b2-6)Gal(b1-4)GlcNAc
# In short: as §1
# Neu5Ac(b2-6)GalNAc = target: Neu5Ac(b2-6)GalNAc
# In short: as §1
# [15] = target: Neu5Ac9Ac(a2-3)Gal(b1-3)GlcNAc
# In short: as §1
# [16] = target: Neu5Ac9Ac(a2-3)Gal(b1-4)GlcNAc
# In short: as §1
# [17] = target: Neu5Ac9Ac(a2-6)Gal(b1-4)GlcNAc
# In short: as §1
# [18] = target: Neu5Gc(a2-3)Gal(b1-3)GlcNAc
# In short: as §1
# [19] = target: Neu5Gc(a2-3)Gal(b1-3)[Fuc(a1-4)]GlcNAc
# In short: as §1
# Neu5Gc(a2-3)Gal(b1-4)Glc = target: Neu5Gc(a2-3)Gal(b1-4)Glc
# In short: as §1
# [20] = target: Neu5Gc(a2-3)Gal(b1-4)GlcNAc
# In short: as §1
# [21] = target: Neu5Gc(a2-3)Gal(b1-4)GlcNAc(b1-3)Gal(b1-4)GlcNAc(b1-2)Man(a1-3)[Neu5Gc(a2-3)Gal(b1-4)GlcNAc(b1-3)Gal(b1-4)GlcNAc(b1-2)Man(a1-6)]Man(b1-4)GlcNAc(b1-4)GlcNAc
# In short: as §1
# [22] = target: Neu5Gc(a2-3)Gal(b1-4)[Fuc(a1-3)]GlcNAc
# In short: as §1
# [23] = target: Neu5Gc(a2-6)Gal(b1-4)GlcNAc
# In short: as §1
# Neu5Gc(a2-6)GalNAc = target: Neu5Gc(a2-6)GalNAc
# In short: as §1
# [24] = target: Neu5Gc(a2-8)Neu5Ac(a2-3)Gal(b1-4)GlcNAc
# In short: as §1
# [25] = target: Neu5Gc(a2-8)Neu5Gc(a2-3)Gal(b1-4)GlcNAc
# In short: as §1
# [26] = target: Neu5Gc(a2-8)Neu5Gc(a2-3)Gal(b1-4)GlcNAc(b1-3)Gal(b1-4)GlcNAc
# In short: as §1
# [27] = target: Neu5Gc(a2-8)Neu5Gc(a2-6)Gal(b1-4)GlcNAc
# In short: as §1
# [28] = target: Neu5Gc(b2-6)Gal(b1-4)GlcNAc
# In short: as §1
binder,measurement,setting,value
B1,glycan array binding signal (z-score),[1],0.371
same,glycan array binding signal (z-score),Neu5Ac(a2-8)Neu5Ac,-0.181
same,glycan array binding signal (z-score),[2],-0.178
same,glycan array binding signal (z-score),[3],-0.181
same,glycan array binding signal (z-score),[4],-0.192
same,glycan array binding signal (z-score),[5],-0.047
same,glycan array binding signal (z-score),[6],-0.176
same,glycan array binding signal (z-score),[7],-0.188
same,glycan array binding signal (z-score),[8],-0.189
same,glycan array binding signal (z-score),[9],-0.186
same,glycan array binding signal (z-score),[10],-0.166
same,glycan array binding signal (z-score),[11],-0.189
same,glycan array binding signal (z-score),[12],-0.171
same,glycan array binding signal (z-score),[13],-0.041
same,glycan array binding signal (z-score),Neu5Ac(b1-6)GalNAc,-0.249
same,glycan array binding signal (z-score),[14],-0.19
same,glycan array binding signal (z-score),Neu5Ac(b2-6)GalNAc,-0.172
same,glycan array binding signal (z-score),[15],-0.176
same,glycan array binding signal (z-score),[16],0.27
same,glycan array binding signal (z-score),[17],-0.195
same,glycan array binding signal (z-score),[18],-0.187
same,glycan array binding signal (z-score),[19],-0.187
same,glycan array binding signal (z-score),Neu5Gc(a2-3)Gal(b1-4)Glc,-0.186
same,glycan array binding signal (z-score),[20],0.328
same,glycan array binding signal (z-score),[21],0.015
same,glycan array binding signal (z-score),[22],-0.191
same,glycan array binding signal (z-score),[23],-0.186
same,glycan array binding signal (z-score),Neu5Gc(a2-6)GalNAc,-0.191
same,glycan array binding signal (z-score),[24],-0.091
same,glycan array binding signal (z-score),[25],-0.107
same,glycan array binding signal (z-score),[26],-0.099
same,glycan array binding signal (z-score),[27],-0.175
same,glycan array binding signal (z-score),[28],-0.167
